According to PubChem BioAssay AID651820 (National Center for Advancing Translational Sciences (NCATS), 2012):
Among all 340,000 compounds or so, about 12,000 (3.5%) were called active. This list was built around the results that the source calls inconclusive (neither active nor inactive); the mix of calls is not that of the screen. The call rests on the fitted dose curve; in most records, active means well fitted inhibition curve with a large enough effect; inconclusive means small, poorly fitted or top-dose-only effect, or another doubt; inactive means no such curve, though single readings can be large or run the other way. Potencies of inconclusive entries are left out as doubtful fits.
Potency means the concentration at half of the fitted maximal effect; tags describe the fitted curve by direction and shape.

Test: qHTS Assay for Inhibitors of Hepatitis C Virus (HCV)
Conditions: Huh7.5.1 HCVcc-Cre (HCVcc is cell-culture hepatitis C virus) infection, luciferase reporter, 44 h; series mostly up to 41.8 µM
Procedure, shortened: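 1,000 cells/well; 4 h culture; + compound; + HCVcc-Cre (~0.5 moi); 44 h; luciferase substrate, RT 15 min; read 15 sec.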
With `O=C(N1CCc2cc(S(=O)(=O)NC[C@H]3O[C@@H](n4ccc(=O)[nH]c4=O)[C@H](O)[C@@H]3O)ccc2C1)C(F)(F)F` the Potency was inconclusive [inhibitor, partial curve, poor fit].
For `O=C(Cn1c(O)c(/C=C2\C=Nc3ccc(Br)cc32)sc1=O)N1CCCC1`, the Potency was inconclusive [inhibitor, single point].
In the case of `CCCCn1c(O)c(C(=O)/C=C/c2ccc3c(c2)OCO3)c(=O)[nH]c1=O`, the Potency was “inactive”.
For `O=C(Nc1cc(Cl)ccc1Cl)c1noc2c1CCCC2`, the Potency was “inactive”.
With `COc1ccc(S(=O)(=O)N[C@@H](C)C(=O)OCC(=O)Nc2cc3oc4ccccc4c3cc2OC)cc1` the Potency was active: 6.31 µM.
With `COC(=O)Cc1c(O)ccn(CCc2c[nH]c3ccccc23)c1=O` the Potency was “inactive”.
In the case of `COCCNC(=O)c1cc(-c2ccccc2)nn1CC1CC(c2cccnc2)=NO1` (centres undefined), the Potency was inconclusive [inhibitor, single point].
With `Cc1cccc(C(=O)OCC(=O)c2c(N)n(CC(C)C)c(=O)n(C)c2=O)c1O` the Potency was inconclusive [inhibitor, partial curve, poor fit].
For `COc1cc(OC)cc(C(=O)NNC(=S)NC(=O)c2cccnc2)c1`, the Potency was “inactive”.
In the case of `Cn1c(=O)c2c(c3ccccc31)OC(C)(C)CC2`, the Potency was inconclusive [inhibitor, full curve].
For `Cc1ccc(C(=O)NCC(=O)Nc2ccc(Cl)cc2)s1`, the Potency was inconclusive [inhibitor, partial curve].
With `CCn1c(/C=C/c2ccccc2F)nc2ccccc2c1=O` the Potency was inconclusive [inhibitor, single point].
For `Cc1ccc(NS(=O)(=O)c2cccc(C(=O)NCC(c3ccc(F)cc3)N3CCOCC3)c2)cc1` (centres undefined), the Potency was inconclusive [inhibitor, single point].
In the case of `CSc1ccc(/C=C/C(=O)c2ccc(NC(=O)C(C)C)cc2)cc1`, the Potency was inconclusive [inhibitor, partial curve].
With `O=C(NC1CCCC1)C(c1ccncc1)N(C(=O)Cc1cccs1)c1cccc(F)c1` (centres undefined) the Potency was “inactive”.
In the case of `Cc1ccc(S(=O)(=O)c2c(C)nn(C(C)(C)C)c2OC(=O)C(C)(C)C)cc1`, the Potency was inconclusive [inhibitor, single point].
With `CCOC(=O)C1(Cc2cccc(OC)c2)CCN(Cc2csc(C(C)=O)c2)CC1` the Potency was active: 22.4 µM.
With `O=C(Nc1ccc(S(=O)(=O)N2CCOCC2)cc1)c1cccnc1` the Potency was “inactive”.
With `COc1ccc(C(CNC(=O)c2ccc(-c3ccccc3Cl)o2)N2CCOCC2)cc1` (centres undefined) the Potency was inconclusive [inhibitor, single point].
